Data: PubChem BioAssay AID686978 (National Center for Advancing Translational Sciences (NCATS), 2013)
Values joined by “and” are separate entries in the source; they are usually repeats but may differ in a detail not shown here. Equal values may be shown once. Among all 420,000 compounds or so, about 64,000 (15%) were called active. Inconclusive results, whose numbers are uncertain, are shown with a selection of clear calls. Calls come from the whole dose curve; as a rule, active = well fitted inhibition curve with a large enough effect; inconclusive = small, poorly fitted or top-dose-only effect; inactive = flat fitted curve, though single readings scatter. Potencies beside an inconclusive call are fits to weak or partial responses and may not hold up.
% is set by controls: 0 for no effect and ±100 for the full control effect; potency is the fitted concentration of half-maximal effect; tags give direction and shape of the fitted curve.

Test: qHTS for Inhibitors of human tyrosyl-DNA phosphodiesterase 1 (TDP1): qHTS in cells in absence of CPT; note: nearly all actives have a fitted effect of over 55% in size
Details: DT40 Tdp1-/- hTDP1 cells, no CPT, ATP luminescence, 48 h; activity change, negative = growth inhibition: at 46.2 µM (top of the series) unless noted
Summary of the method: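 Camptothecin absent (DMSO only). Human TDP1-complemented DT40 knockout cells, 400 cells/well, 37 °C for minimum 48 hr; ATP measured via CellTiter-Glo, 30 min dark incubation, luminescence.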
In the case of `Clc1ccc(-c2n[nH]c3c2CCC3)c(Cl)c1`, the Potency is reported as “inactive”.
With `CCn1c(SCc2c(Cl)cccc2Cl)nnc1-c1nn(-c2ccccc2)ccc1=O` the Potency was inconclusive: 29.1 µM [inhibitor, single point].
For `Cc1cc(C)c(NC(=O)COC(=O)/C=C/c2cccs2)c(C)c1`, the Potency was “inactive”.
For `Cc1cc(C)c2cc(C#N)c(NCCOC(=O)c3ccccc3C)nc2c1`, the Potency was inconclusive: 29.1 µM [inhibitor, single point].
In the case of `O=C1CSC(c2ccc([N+](=O)[O-])cc2)N1Cc1ccccc1` (configuration not stated), the Potency is reported as “inactive”.
In the case of `COc1ccc(NC(=O)CN(C)C(=O)c2c(-c3c(F)cccc3Cl)noc2C)cc1`, the Potency is reported as “inactive”.
In the case of `COC(=O)c1cc(NC(=O)CN2CCC(C(N)=O)(N3CCCCC3)CC2)cc(C(=O)OC)c1`, the Potency is reported as “inactive”.
With `COc1ccc2c(C(=O)c3ccc(C)cc3)n(CCC(N)=O)[n+]([O-])c2c1` the Potency was “inactive”.
With `COc1ccc(CCNC(=O)C(=O)NCCC2CCCCN2S(=O)(=O)c2ccccc2)cc1` (configuration not stated) the Potency was active: 23.1 µM.
In the case of `COc1ccccc1C(=O)N/C(=C\c1cn(S(=O)(=O)N(C)C)c2ccccc12)C(=O)NCCCN1CCOCC1`, the Potency is reported as inconclusive: 29.1 µM [inhibitor, single point].
For `CCc1ccccc1NC(=O)N1CCC(NC(=O)C(Cc2ccc(OC)c(OC)c2)NC(C)=O)CC1` (configuration not stated), the Potency was “inactive”.
For `C[C@H]1CN[C@@H](CCO)/C1=C\c1ccccc1`, the Potency was inconclusive: 8.2 µM [inhibitor, partial curve].
For `CN(Cc1ccco1)C(=O)C1CCC(=O)N(CCc2cccc(F)c2)C1` (configuration not stated), the Potency was inconclusive: 29.1 µM [inhibitor, partial curve, poor fit].
For `CCCNC(=S)N(Cc1ccccc1)Cc1nc2ccccc2c(=O)[nH]1`, the Potency was inconclusive: 20.6 µM [inhibitor, single point].
With `COc1cccc(-c2noc(Cn3nc(C)c([N+](=O)[O-])c3C)n2)c1` the Potency was “inactive”.
In the case of `Cc1ccc(N=Nc2c(N)[nH]n3c(=O)cc(-c4ccccc4)nc23)cc1`, the Potency is reported as active: 14.6 µM.
For `Cc1c(C(=O)NCC2CCCO2)sc2nc(-c3ccc(F)cc3)cn12` (configuration not stated), the Potency was inconclusive: 18.4 µM [inhibitor, single point].
In the case of `O=C(c1ccc(Cl)c(Cl)c1)N(Cc1ccco1)c1ccc(O)cc1`, the Potency is reported as inconclusive: 29.1 µM [inhibitor, single point].
In the case of `Cc1ccc(Cn2c(Cc3ccccc3)nc3ccccc32)cc1`, the Potency is reported as active: 16.4 µM.
For `O=C(CCS(=O)(=O)c1ccc(F)cc1)Nc1nccs1`, the Potency was inconclusive: 18.4 µM [inhibitor, single point].
With `O=C(NCc1ccc(F)cc1)c1cc(C2CCCCN2C(=O)OCCF)on1` (configuration not stated) the Potency was inconclusive: 29.1 µM [inhibitor, single point].
In the case of `CCOC(=O)N1CCC(NC(=O)c2ccc3c(c2)ncn3C2CCCC2)CC1`, the Potency is reported as inconclusive: 16.4 µM [inhibitor, single point].
For `Cc1cccc(Nc2nc(N)nc(-c3oc4ccccc4c3C)n2)c1`, the Potency was active: 25.9 µM.
In the case of `Cc1ccc(N(CC(=O)NCc2ccc(OC(C)C)cc2)S(=O)(=O)N(C)C)cc1`, the Potency is reported as inconclusive: 14.6 µM [inhibitor, partial curve, poor fit].
For `COc1ccccc1NS(=O)(=O)c1cccc(NC(=O)NCCCl)c1`, the Potency was inconclusive: 23.1 µM [inhibitor, single point].
With `CCc1nc2c(OCc3ccccc3C)cccn2c1N(C)C(=O)c1ccc(C)cc1` the Potency was active: 16.4 µM.
For `O=C(Nc1cccc(-c2nc3ccccc3[nH]2)c1)c1cccc(NC(=O)c2ccco2)c1`, the Potency was active: 18.4 µM.
In the case of `CCOC(=O)C1=C(C)NC(C)=C(C(=O)OCC)C1c1ccc(OC)cc1`, the Potency is reported as active: 23.1 µM.
In the case of `CCOC(=O)c1ccccc1NC(=O)CCc1c(C)nc2c(c1C)c(=O)n(C)c(=O)n2C`, the Potency is reported as “inactive”.
For `COc1ccc(OC)c(-n2c(SCC(=O)Nc3cc(C)on3)nnc2-c2c[nH]c3ccccc23)c1`, the Potency was inconclusive: 9.2 µM [inhibitor, partial curve].
For `CC(COc1ccccc1)NN` (configuration not stated), the Potency was “inactive”.
In the case of `COc1ccc(C(CC(=O)N2CCCCC2)c2c(OC)cc(OC)c3c(-c4ccccc4)cc(=O)oc23)cc1` (configuration not stated), the Potency is reported as inconclusive: 18.4 µM [inhibitor, single point].
For `COCCCNC(=O)C[C@@H]1C[C@@]2(C(=O)OC)CC(C)(C)CC=C2N(Cc2ccccc2)C1=O`, the Potency was “inactive”.
With `Cc1cc(S(=O)(=O)NCC2CCCO2)c(C)cc1Br` (configuration not stated) the Potency was “inactive”.
With `O=S(=O)(c1cccc2ccccc12)N1CCC2CC1c1cc(Cl)ccc12` (configuration not stated) the Potency was inconclusive: 29.1 µM [inhibitor, single point].
In the case of `COc1ccc(C(=O)N(c2c(C)cccc2C)C(COC(C)=O)COC(C)=O)cc1`, the Potency is reported as inconclusive: 29.1 µM [inhibitor, single point].
In the case of `Cc1cnc(C)c(-c2cc(F)c3c(c2)CC(CNC(=O)c2cccc(Cn4cccn4)c2)O3)n1` (configuration not stated), the Potency is reported as “inactive”.
In the case of `Cc1cc(N2CCN(c3ccccc3)CC2)n2c(n1)nc1ccccc12`, the Potency is reported as inconclusive: 35.5 µM [inhibitor, single point].
With `Cc1ccc(S(=O)(=O)N2CCCCC2)cc1NC(=O)CSc1nccn1C` the Potency was “inactive”.
With `C=CCNC(=O)/C(C#N)=C/c1ccccc1Cl` the Potency was inconclusive: 16.4 µM [inhibitor, partial curve, poor fit].
With `COC(=O)c1ccc(NC(=O)c2cc3cc4ccc(OC)c(Cl)c4nc3s2)cc1` the Potency was “inactive”.
With `COc1ccc2c(c1)N(C[C@H](C)CN(C)C)c1ccccc1S2` the Potency was inconclusive: 10.1 µM [inhibitor, single point] and inconclusive: 29.1 µM [inhibitor, single point].
With `CCOc1ccc(NC(=O)C/C(C)=N/NC(=O)Cc2cccs2)cc1` the Potency was “inactive”.
In the case of `COc1ccc2c(Cl)c(C(=O)NCc3ccco3)sc2c1`, the Potency is reported as “inactive”.
In the case of `Cc1sc2ncnc(N3CCC(C(=O)Nc4nc5ccc(Cl)cc5s4)CC3)c2c1C`, the Potency is reported as active: 7.31 µM.
With `COc1cccc(N=Nc2c(N)[nH]n3c(=O)c4c(nc23)CCCC4)c1` the Potency was inconclusive: 20.6 µM [inhibitor, single point].
With `C/C=C(\C)C(=O)NCCN1C2=NC[C@H](Cc3ccc(O)cc3)N2C[C@@H]1Cc1ccc(OC)cc1` the Potency was inconclusive: 29.1 µM [inhibitor, single point].
For `O=C(Nc1nnc(-c2ccc(F)cc2)o1)c1ccc(S(=O)(=O)N2CCOCC2)cc1`, the Potency was active: 2.91 µM.
With `CC(C)CN(CC(C)C)CC(O)COc1ccccc1Br` (configuration not stated) the Potency was active: 14.6 µM.
In the case of `COc1ccc(C(C)=O)cc1COC(=O)c1cccnc1SC`, the Potency is reported as “inactive”.
For `CN(C)C(=O)c1ccc(NC(=O)c2cc(-c3ccco3)nc3ccccc23)cc1`, the Potency was inconclusive: 29.1 µM [inhibitor, single point].
With `CCOC(=O)N1CCN(Cc2cc(Cl)c3cccnc3c2O)CC1` the Potency was active: 0.461 µM.
In the case of `O=C(NC1CCN(Cc2ccccc2)CC1)C1CCN(S(=O)(=O)c2cccc([N+](=O)[O-])c2)CC1`, the activity change, negative = growth inhibition is reported as inconclusive: -32.3% [inhibitor].
With `C=C1[C@@H](O)[C@H](Cc2ccccc2)N(Cc2ccccc2Br)S1(=O)=O` the Potency was active: 18.4 µM.
With `CCCCc1ccc(NC(=O)c2ccc(NS(C)(=O)=O)cc2)cc1` the Potency was inconclusive: 5.8 µM [inhibitor, full curve, poor fit].
In the case of `COc1ccc(-c2noc(CSc3nnc(-c4ccncc4)n3-c3ccc(OC)cc3)n2)cc1`, the Potency is reported as inconclusive: 23.1 µM [inhibitor, single point].
With `CCOC(=O)C1=C(COC(=O)Cc2c(F)cccc2Cl)NC(=O)NC1C` (configuration not stated) the Potency was “inactive”.
In the case of `Cc1ccc(S(=O)(=O)N2C[C@H]3n4c(=O)ccc(=O)n4C[C@H](OC(=O)NCc4ccco4)[C@@]3(O)C2)cc1`, the Potency is reported as inconclusive: 20.6 µM [inhibitor, single point].
In the case of `O=C(CN1C(=O)c2ccccc2C1=O)Nc1sc2c(c1C(=O)NCc1ccco1)CCCC2`, the Potency is reported as “inactive”.
With `O=C(NC1CC(=O)N(c2ccc(F)cc2)C1)C(c1ccccc1)c1ccccc1` (configuration not stated) the Potency was inconclusive: 29.1 µM [inhibitor, single point].
With `Cn1cc(C(=O)N2CCN(c3ccccc3)CC2)c(=O)c2cc(S(=O)(=O)N3CCCC3)ccc21` the Potency was “inactive”.
With `C(=N\Nc1nccc(-c2cccnc2)n1)/c1ccccc1` the Potency was inconclusive: 29.1 µM [inhibitor, partial curve, poor fit].
For `Cc1nc(NC(=O)c2ccccc2)sc1C1(C)CC(c2c(Cl)cccc2Cl)=NO1` (configuration not stated), the Potency was inconclusive: 29.1 µM [inhibitor, single point].
For `CC1=CC(=O)N(c2cccc3c(N4C(=O)C=C(C)C4=O)cccc23)C1=O`, the Potency was active: 2.91 µM.
With `O=C(COc1cccc(Cl)c1)Nc1ccccc1N1CCCCC1` the Potency was inconclusive: 20.6 µM [inhibitor, single point].
For `O=C(C1CC1)N1CCc2cc(Br)cc(S(=O)(=O)Nc3ccc(C(F)(F)F)cc3)c21`, the Potency was active: 16.4 µM.
In the case of `COc1ccccc1NC(=O)c1ccccc1NC(=O)c1cccs1`, the Potency is reported as inconclusive: 23.1 µM [inhibitor, partial curve, poor fit].
In the case of `CCSc1nnc(NC(=O)C2CCN(C(=O)c3ccc(F)cc3)CC2)s1`, the Potency is reported as “inactive”.
For `CCCC[n+]1c(C)ccc2ccccc21`, the Potency was active: 15.8 µM.
In the case of `CCOC(=O)C1=CN(Cc2cccc(F)c2)S(=O)(=O)NC1c1ccc(Br)cc1F` (configuration not stated), the Potency is reported as inconclusive: 16.4 µM [inhibitor, single point].
For `CC1CCC(N(CCCN)Cc2ccco2)CC1C` (configuration not stated), the Potency was active: 20.6 µM.
For `C/C(=N\NC(=O)CNc1cccc(C(F)(F)F)c1)c1ccc(Br)cc1`, the Potency was inconclusive: 29.1 µM [inhibitor, partial curve, poor fit].
